Data: paper PMC6397201, “Purification of cross-linked RNA-protein complexes by phenol-toluol extraction” (Nature Communications, 2019)

Biological target: the molecule itself
Experiment: SDS-PAGE and western blot (oligomer that resists SDS-PAGE); Salmonella Typhimurium SL1344 Hfq::x3FLAG, with or without UV 254 nm, Hot-PTex at 65 °C, RNase treatment; anti-FLAG western blot

B1: Hfq protein, chromosomally FLAG-tagged (Salmonella Typhimurium SL1344 Hfq::x3FLAG) (natural protein)
chain: not shown
notes: printed as a 17-kDa protein that forms a homo-hexamer; Cells were UV-irradiated (254 nm), so residual cross-linked RNA fragments may be on the protein; also called Hfq-FLAG; source: endogenous locus, chromosomally FLAG-tagged, Salmonella Typhimurium SL1344; whole cells and Hot-PTex fraction
  stoichiometry N: 6
